Laboratory results from the supplement of paper PMC11417369.
± gives the standard deviation of the averaged measurements. The list shows a part of the results.

Tested on: PfAP2-LT AP2 domain (GST-tagged)
Assay: gcPBM binding intensity (ln(normalized median fluorescence intensity)); higher = stronger DNA binding
Summary of the method: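 Binding intensity is defined as the maximum Masliner-normalised natural-log median intensity across replicate spots for either probe orientation. It was measured on an Agilent 4 × 180k array of primer-extended double-stranded 36-bp intergenic genomic probes and negative controls, to which GST-tagged P. falciparum DNA-binding domains made in E. coli were applied for 1 h in 1× PBS with 1% milk, 0.2 mg/ml BSA, 0.5% salmon testes DNA and 0.03% Triton X-100. Detection was by Alexa488 anti-GST antibody and scanning at 488 nm.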

Row | Sequence | gcPBM binding intensity (ln)
1 | ATTTTAATTTTGTATACACACATTTGAATTATTAAT [CACACA_site3528] | 9.05 ± 0.45
2 | ATATATTATATATGCGCACACACGAATTTTTTTTTT [CACACA_site2393] | 9.31 ± 0.4
3 | ATTAAAGTTATAAATTCACACATGTAAATGTATTTA [CACACA_site5279] | 8.67 ± 0.33
4 | GATAAATATTTAATATGTACATATATTATATATATA [XGTACX_site117] | 8.71 ± 0.41
5 | GTTATATATGATGGAAGCACTTGGAAGAGGGAAATA [CACACA_negctrl_site1831] | 8.79 ± 0.46
6 | AAAAATAAAAAAATAAAAAATAAAAAAATAAAAAAT [CACACA_negctrl_site1425] | 8.72 ± 0.54
7 | TATATACACACCGTGTGTACATATACATTAACTGAA [XGTACX_site7120] | 9.61 ± 0.23
8 | TATATATACATACGTACACACAAATATTAAAATATA [CACACA_site1951] | 8.99 ± 0.45
9 | TCAAAATTGCTTTGTTGTACTAATAAAATTTATTAC [XGTACX_site1121] | 8.61 ± 0.35
10 | TATCTGTAAACATATTCACACACATAAATTCGCATA [CACACA_site8557] | 9.28 ± 0.33
11 | TATATATATATAATATGTACATATATACATGCCTTG [XGTACX_site2791] | 9.09 ± 0.3
12 | TACACTAATGACAGTTGTACTTTTATTCGATAGAAT [XGTACX_site738] | 8.64 ± 0.49
13 | TCGAAAATGACGAATGGTACAGTATGTATAAAAATA [XGTACX_site1258] | 8.87 ± 0.53
14 | ACTTTTTTTTTGTGTGTGCACTCGATTATATACATA [GTGCAC_site9846] | 9.57 ± 0.46
15 | ATGGCATAAATATATGCACACACAAAAAAAAAAAAA [CACACA_site7902] | 9.29 ± 0.51
16 | AAAAAGAAAAAGAGCACACAAAAATATTTAACCTTT [CACACA_site2747] | 8.99 ± 0.51
17 | TTTCTTTTTTTTTGAAGTACATAAAAATATAAAAAA [XGTACX_site311] | 7.96 ± 0.33
18 | ATATATATATGTATGTATATATATATATATATGTTT [CACACA_negctrl_site248] | 9.08 ± 0.34
19 | AATATTATAAAATATTGTACTTAAAAAATTATTAAA [XGTACX_site2469] | 8.37 ± 0.49

Row | Sequence | gcPBM binding intensity (ln)
20 | TAAATTTTTTCTTTTTGTACATATTTTAAAAATGTT [XGTACX_site7526] | 8.54 ± 0.57
21 | TTTTATTCCGTTTCAAAATAAGAAAAAAAAAAAAAT [CACACA_negctrl_site1199] | 8.22 ± 0.43
22 | TACTTCTCATTTGTTGTTGTATTTTAGGCATACCCT [XGTACX_negctrl_site385] | 8.88 ± 0.59
23 | TAAATATAATAAAAGTGTACTTACACTTACATATAA [XGTACX_site1206] | 8.55 ± 0.57
24 | TTTCACACTATTTCATGTACACATAAAATTATATAT [XGTACX_site8692] | 8.83 ± 0.42
25 | AACAGATAAAAGGGTACACACATATATACATGTACA [CACACA_site225] | 9.23 ± 0.44
26 | TTGTATATATTTCCTTGTACGTAATAATTCTTATTG [XGTACX_site3938] | 8.82 ± 0.38
27 | ATATAATAAGGTTAAGCACACATATTACATATATAA [CACACA_site9110] | 8.93 ± 0.47
28 | AAGGATAATAGGTACACATGCAATATTCATATATAC [TGCATGCA_site523] | 9.13 ± 0.3
29 | CTTATATATACGTGCACACATATATATAAGATATAT [CACACA_site1752] | 9.04 ± 0.29
30 | ATTTAAAAAAAAAAAAATAAATAACTTGAAAAACAA [GTGCAC_negctrl_site318] | 8.3 ± 0.4
31 | AAAAATATAAATGACACACACTTAAAAACAAAGAAA [CACACA_site4540] | 9.28 ± 0.45
32 | ACGTATATTTTTACATGTACATATGTAAAAAATTTT [XGTACX_site4587] | 8.7 ± 0.32
33 | TGTTTTTCATAGTGCACACATAACCAAAAATAGTAT [CACACA_site3150] | 8.97 ± 0.34
34 | AAATAATATATATACACACACACATATATATATACA [CACACA_site554] | 9.71 ± 0.13
35 | TTATGATAATTTTGCACACACTTAGGAAAAATTATG [CACACA_site4949] | 8.99 ± 0.4
36 | AAATACTGTACAAAGGTGCATAAAAAGTGGGGCATA | 9.13 ± 0.48
37 | TCAAAAGAAATAAAAACATGCATAAAAGTAAAAATA [TGCATGCA_site832] | 8.89 ± 0.45
38 | AATAATGAAAAATCAAATAACCTAAATTACAACTGT [XGTACX_negctrl_site65] | 8.82 ± 0.41

Row | Sequence | gcPBM binding intensity (ln)
39 | TTTTATTTATCATACACACACAGAAAAAAAAAAAAA [CACACA_site158] | 8.89 ± 0.32
40 | GAATGTTTATTATATGCATGTTATATATATGAATAT [TGCATGCA_site4] | 8.85 ± 0.32
41 | CCTTTCCTTTTATAAGTGCATATAACAAATGTATAC [GTGCAC_site9872] | 8.72 ± 0.35
42 | TTTTTTTTTCTTTCTTTCTTTTGTAAAAACCTCAAA [CACACA_negctrl_site723] | 8.26 ± 0.55
43 | ATATGTATATATAAAAGTACGCGTAAAAAAAAAAAA [XGTACX_site5377] | 9.34 ± 0.42
44 | TCTTTTTATATTTATTGTACATAAAAAATAAAACAT [XGTACX_site4073] | 8.41 ± 0.35
45 | TATAAACCAATGAACACACAAACATATATATATATA [CACACA_site3168] | 9.88 ± 0.38
46 | TAAATATATAAATACACACACATACACAAAAAAAAA [CACACA_site5890] | 9.68 ± 0.27
47 | TATACACCCTAAAATACACACACACCCACCCATATA [CACACA_site9380] | 10.06 ± 0.078
48 | TATTAATTCTTAAATTTTTTTTTTTAATTCCTAGGA [CACACA_negctrl_site879] | 8.02 ± 0.53
49 | ACAACATTTCTCAAATGTACATAATATAATTTATAT [XGTACX_site3224] | 8.71 ± 0.39
50 | TATATATAATACAGTATGCACTATTTTTATTAAAAA | 8.4 ± 0.47
51 | CAATAATTTTTTAAATGTACTTTATTATAATTTAAT [XGTACX_site135] | 8.32 ± 0.46
52 | GAATGAATCAATGTTTGTACTCAACAAATTATAAGG [XGTACX_site5122] | 8.73 ± 0.43
53 | GCCTTCCTTCTAAATGCACACGGAAAGTATAAATGT [CACACA_site8797] | 9.04 ± 0.31
54 | GTCTAACAACCAAACGCACACACACTAATAAAAAAA [CACACA_site8026] | 9.71 ± 0.35
55 | TTTTCTTACATCTTATAAAAAAAAATATATATTATA [GTGCAC_negctrl_site118] | 7.96 ± 0.51
56 | TTATATACATAAAAATGTACTTTTTATAAAATATAT [XGTACX_site8281] | 8.38 ± 0.37
